Results on one compound are retold here after PubChem BioAssay (NCI).

The test system of this assay is HCT-116 colon. Briefly: NCI-60 one-dose screen, 48 h (100 = growth as untreated, 0 = no growth, -100 = all killed).

Each structure is given as a SMILES string. The source holds several records for some structures; these can differ, active in one and inactive in another.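 Cells were grown in 96-well plates and exposed to the test compound at a single concentration for 48 hours; results are reported as percent growth, with values below 10 considered active.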 Some entries of the source have several records that differ or are many. They are shown here; other results are not. There may be further records. The screen tested this drug many times, at the concentration stated with the values; one value stands for one run. Additions like (4×) give the number of equal values in this list.

For `COc1cccc2c1C(=O)c1c(O)c3c(c(O)c1C2=O)C[C@@](O)(C(=O)CO)C[C@@H]3OC1CC(N)C(O)C(C)O1` (some centres not stated), the growth entry reads like this: (0.25 µM, runs of 2014) “inactive: 24 (2×), 23.7, 23.9 (5×), 16.6, 13.8, 28.9, 18.7, 16.2, 19.3, 14.7, 17.5, 16.8, 21.3 (2×), 35.2 (2×), 19.5, 23 (2×), 10.4, 27.7, 27.4, 22.8 (2×), 26.3 (2×), 29.5, 29, 25.8, 24.6 (4×), 37.2, 23.2 (2×), 27.8 (2×), 29.6, 23.8, 26.7, 25.1 (2×), 17.9, 17.3, 27.9, 25.9 (2×), 30.3, 28.1, 24.5 (3×), 24.8, 20.8, 23.4, 26.4, 20, 34.2, 19.8, 33.6, 21.8, 25, 34.6, 35.4, 27.6, 21.6, 31.9, 31.8, 19.7, 20.4%”; (0.25 µM, runs of 2015) “inactive: 25.4, 22.5 (2×), 17.6 (2×), 20.1 (4×), 18, 29.1, 43.9, 23.1 (2×), 22 (2×), 24.1 (2×), 13.3, 18.2, 20 (2×), 21.4, 62.8, 53.2, 17.8, 17.4, 21.9 (2×), 14.1, 26, 19.9 (3×), 15, 12, 11, 16.3, 21.3, 24.2, 15.5, 16.2 (2×), 15.1, 19.4, 17.9, 25.2, 16.1, 13.7, 18.8 (2×), 20.3, 19.1, 16.5 (2×), 21, 17.3, 17, 22.2 (4×), 18.5, 30.5, 32.2 (2×), 23.2, 26.4, 21.6 (2×), 19 (2×), 16.6, 23.7, 20.6, 14, 26.1, 27.1, 16.7, 13, 25.1, 20.8, 23.9, 24.9, 27.3, 22.3, 24.7% and active: 8.45%”; (0.25 µM, runs of 2016) “inactive: 20.2, 16.6, 20.4, 28.5 (2×), 34.4, 18.7 (2×), 25, 22.5, 23.8, 27.3, 23.4, 18, 10.4, 11, 11.6, 11.5, 18.9 (2×), 20.7 (3×), 11.2, 13.8, 13.3, 17.9, 14.6, 17.8, 13.7, 16.4, 16.3, 15.7, 20.9 (2×), 19.9, 22.1, 15.9, 19.1, 20, 18.4, 18.2, 19.8, 37.9, 22.6 (2×), 22.9, 23.2, 40.8, 38.4, 22.8, 21.4, 30.9, 35.8 (2×), 40.6, 20.3 (2×), 22.3, 25.9, 28.9, 24.1, 29.5, 25.2, 26.4, 29.6, 29.4, 24.7, 30.6, 31.8 (3×), 25.8, 30.3, 26.7, 26.3, 21.5, 30 (2×), 31.9 (2×), 24.9, 32.3%”; (0.25 µM, runs of 2017) “inactive: 26.1, 28.9, 28.2, 16, 19.9, 19.5, 26.5, 19.3, 19.2 (2×), 22.8, 25.1, 16.9 (2×), 18.4, 19.6, 15.2 (2×), 14 (2×), 14.9, 17.5, 15.3 (2×), 20.5 (3×), 22 (4×), 15, 16.2 (3×), 20.1, 21.1 (3×), 15.4, 19.1, 24.3, 22.2, 21.8 (3×), 21.9 (2×), 23.1, 22.3, 18.8, 17.4 (2×), 20.7, 17.7, 18.7, 17.3, 19.4, 16.6, 16.7, 12.4, 13.8, 23, 25.5, 31.3 (2×), 23.3, 20.2, 20.3, 27.8, 18.6, 20.9, 20.8, 30, 26.2, 24.8, 27.3, 21.2, 21, 46.8, 40.8%”; (0.25 µM, runs of 2018) “inactive: 26.2 (2×), 25 (2×), 20.1 (2×), 21.4, 29.7, 24.5 (2×), 21, 21.5 (2×), 26.7, 20.4 (2×), 30, 25.1, 24.1, 25.8 (2×), 22.8, 24.6, 26.1 (2×), 21.7 (3×), 25.4, 25.2, 23.2, 22.3, 42.4, 22.1, 21.6, 20, 24.2, 22.2, 38.2, 21.8, 19.6, 23.3, 19.7, 25.5, 19.9, 23.1 (2×), 23.7 (2×), 26.3, 17, 22.5, 11.2, 16.7%”; (0.25 µM, runs of 2019) “inactive: 19 (2×), 16.5, 19.6, 14.5, 20.5 (2×), 23.8, 23.4 (2×), 25, 18.1 (3×), 20.6 (2×), 18.4 (2×), 21.2, 19.7, 30.3, 18.6, 14.1, 21.6 (3×), 27.7, 20.8, 26.5, 23.3, 18.5, 26.4, 22.8, 21.8 (2×), 21 (2×), 23.9, 20.1, 21.3, 19.8, 22.3, 21.9 (3×), 22.9 (2×), 20.9, 24.9, 25.1, 23%”. Also, the growth result was “inactive: 18.4, 22.3, 23.5, 23.7, 22.8, 20.9, 22.4, 23.2 (2×), 22.5, 20.1, 25.6, 21.9, 36.7, 23.4 (2×), 23.1, 29.5, 26, 27.9, 30.3, 22.6, 28.4, 24.7, 26.2, 26.5%” (0.25 µM, runs of 2020); “inactive: 26.6, 31.1, 24.2 (2×), 28.5 (2×), 25.8 (3×), 26.7 (2×), 21, 25.1, 20.7 (2×), 29.8, 22.3, 21.4, 24.7, 28.1, 27.7, 23, 22.8 (2×), 21.8, 21.1, 22.4 (2×), 23.2, 27.1, 25.9, 34.1, 31.7, 26, 26.1, 24.9, 26.5, 23.4, 33.3, 23.3, 22, 27.4 (2×), 24.6, 15.9, 23.5, 30.9, 20.6, 21.7%” (0.25 µM, runs of 2021); “active: -1.35%, -3.94%, -14.6% and inactive: 25.9, 30.5, 18.8, 12.2, 19.8, 23.9 (2×), 32.4, 29.8, 30.9, 37.3, 28.4, 32, 21.9, 18, 45.1, 55.8, 24.1, 48.4, 40.4, 54.3, 26, 21, 24, 21.5%” (0.25 µM, runs of 2022); “active: 3.93, 9.77, 7.61, -0.602, 2.22, 0.615, -18.9, -33.4, 3, 2.44, 0.0457, -21.5, 4.3, -9.38, -21.9, -41.4, -16.9%” (25 µM, runs of 1991); “active: -26.4 (2×), -23.4 (2×), -25.9, -16.9, -16.2 (2×), -18.5, 4.06, 0.0823, 2.39, -11.8, -19, -40.4, -36.6, -9.85, -16.4, -31 (2×), -27.7, -0.403, 2.08, 3.95, 2.22, 3.81 (2×), -15.1, -29.6, -10.7, -15, -59.6, -79.7, -18.6, -21.9, -5.84, -24.5, -33.5, -3.23, -23.1, 0.0321, 2.21, 4.83, -12.3, 0.301, -40.2, 0.893, -71.7, -59.5, -37, -21.1, -20, -30.3, 1.36, 5.97, 3.87, -5.7, 0.958, -16.1, -21.5, -32.3, -17.9, -18.3, 0.433, -10.6, 1.69, 1.48 (2×), -30.4, 1.63, -0.284, 0.682, -100, -25.2, -29.5, -11.7, -23.2, -22.5, 3.16, 4.35, -7.93, -27.6, -2.84, -13.1, -1.59, -0.714, 0.751, -28.8, -40.9, -58.4, 1.01, -9.68, 4.11, -46.2, -45.6, 3.94, 1.64, -35.9, -33.7, 4.61, 3.69, -29.4, -34.3, -8.27, 5.48, 4.66, -34.9, -8.16, -43.1, -16.5, 4.96, -53.3, 2.38%” (25 µM, runs of 1992); “active: 0.479, -2.73, -26, 9.25, 2.56, -23.1, 8.04, -1.15, -47.8, 1.02, -23, -13, 1.33, -0.962, -40.1, -1.41, -31.9, -14.7, 4.7, 5.77, -0.938, -15, 2, -6.03, -13.1, -17.1, -4.53, -16.6, -34.4, -20.4, -0.621, 6.96, -71.6, -9.69, -25.3, 1.29, -39.8, 4.77, -18.8, 1.5, -41.8, -6.5, -44.1, -4.6, 6.35, -27.2, -29%” (25 µM, runs of 1993).
